Experimental data as given in PubChem BioAssay AID488969 (Vanderbilt High Throughput Screening Facility, 2010).
In all, about 110,000 compounds were measured (“z-score”: median about -0.1, highest 2% from about 2 on). This is one part of the list. Active and inactive are the calls of the source.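 Rule for the calls: active = z-score in the third read window above 3 or below -3; inactive = the rest.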

The molecules below were run against Metabotropic glutamate receptor 8 (Rattus norvegicus) (UniProt P70579) (assay: rat mGluR8 modulators via GIRK flux, primary screen, cell-based, thallium flux, HTS (AID 488969)). Settings: HEK293 rat mGluR8, GIRK (G protein-gated inwardly rectifying potassium channel) thallium flux, FluoZin2; at 10 µM; stronger effect = higher value; submaximal glutamate (EC20) added with thallium.
Sequence of UniProt P70579 (P70579 whole entry, looked up): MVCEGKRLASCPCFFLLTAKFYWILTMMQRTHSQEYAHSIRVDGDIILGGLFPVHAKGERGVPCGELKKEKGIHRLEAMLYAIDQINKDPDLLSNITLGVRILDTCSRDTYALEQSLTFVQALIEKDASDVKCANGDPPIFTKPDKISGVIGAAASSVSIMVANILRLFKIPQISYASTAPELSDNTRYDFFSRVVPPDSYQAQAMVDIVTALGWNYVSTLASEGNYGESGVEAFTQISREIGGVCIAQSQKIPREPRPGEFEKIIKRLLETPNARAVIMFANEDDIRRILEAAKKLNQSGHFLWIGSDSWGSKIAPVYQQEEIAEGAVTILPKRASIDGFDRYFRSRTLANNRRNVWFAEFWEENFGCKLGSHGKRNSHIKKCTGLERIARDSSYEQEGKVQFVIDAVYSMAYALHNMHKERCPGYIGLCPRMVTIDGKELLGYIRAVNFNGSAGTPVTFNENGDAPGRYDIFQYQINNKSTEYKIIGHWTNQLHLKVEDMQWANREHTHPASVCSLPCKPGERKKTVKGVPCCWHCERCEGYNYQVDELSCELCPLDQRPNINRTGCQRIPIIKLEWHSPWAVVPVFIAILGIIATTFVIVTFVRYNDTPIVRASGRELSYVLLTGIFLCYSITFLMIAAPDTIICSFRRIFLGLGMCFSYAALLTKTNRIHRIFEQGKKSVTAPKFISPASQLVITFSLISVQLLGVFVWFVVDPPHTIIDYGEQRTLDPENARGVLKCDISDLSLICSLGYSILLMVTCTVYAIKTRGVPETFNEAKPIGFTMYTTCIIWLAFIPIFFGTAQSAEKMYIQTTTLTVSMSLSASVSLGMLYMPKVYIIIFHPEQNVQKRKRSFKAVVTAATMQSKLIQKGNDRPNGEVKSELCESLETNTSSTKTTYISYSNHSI
Work on O=C(CSc1nnc(COc2ccccc2Cl)o1)NC(=O)NC1CCCC1 yielded a z-score of -0.637. In the case of CCC(=O)c1c[nH]c(C(=O)NCCc2ccccn2)c1, the z-score is reported as -0.0392. Molecule CCCCS(=O)(=O)c1sc2nc3c(cc2c1N)CCCC3 has a z-score of -0.167. Work on Cc1nc(NC(=O)CN2CCOCC2)sc1-c1ccccc1 yielded a z-score of 0.186. In the case of CC12COC3(C(=O)Nc4ccc([N+](=O)[O-])cc4)CC1CCC32C (stereo not given), the z-score is reported as -0.307. COc1cc(OC)cc(C(=O)NCC(=O)OCC(=O)c2ccc3c(c2)-c2ccccc2C3)c1 showed a z-score of 0.13. Work on Cn1c(SCc2ccc(Cl)cc2)nc(C(F)(F)F)cc1=O yielded a z-score of -0.114. In the case of CCC(=O)NC(=S)Nc1ccc(NC(=O)COc2ccc(Cl)cc2Cl)cc1, the z-score is reported as -0.124. COc1cccc(C2C3=C(CC(C)(C)CC3=O)Nc3cc4c(cc32)OCO4)c1 (stereo not given) showed a z-score of 2.12. Cc1nn(-c2ccccc2)c(C)c1/C=N/NC(=O)c1cc(C23CC4CC(CC(C4)C2)C3)[nH]n1 was tested, and the z-score was -0.0227. Molecule O=C(Cn1c(=O)n(-c2ccc(F)cc2)c(=O)c2sccc21)N1CCCC1 has a z-score of -0.657. Cc1cccc(OCCC(=O)NCC(c2ccco2)N2CCCCC2)c1 (stereo not given) gave a z-score of 0.65. Work on CCOc1ccc(CSC2=NCCN2)cc1[N+](=O)[O-] yielded a z-score of -0.766. CCN(CC)c1nc2n(c(=O)n1)CCO2 was tested, and the z-score was 0.0948. CC1=NN(c2ccc(C)cc2C)C(=O)C1C(c1cccc(O)c1)C1C(=O)N(c2ccc(C)cc2C)N=C1C (stereo not given) gave a z-score of -0.151. CC(C)OC(=O)c1cccc(NC(=O)c2ccccc2)c1 showed a z-score of -0.57. Molecule O=C(NCCCn1ccnc1)C(Cc1ccc([N+](=O)[O-])cc1)N1C(=O)c2ccccc2C1=O (stereo not given) has a z-score of 2.67. Work on Cc1cccc2cc(/C=N/NC(=O)c3ccccc3O)c(Cl)nc12 yielded a z-score of 0.0387. Work on O=C(CSc1nc(C2CC2)nc2ccccc12)N1c2ccccc2Sc2ccc(C(F)(F)F)cc21 yielded a z-score of 0.00774. With CCC(C)[C@H](NC(=O)NCc1ccccc1Cl)C(=O)OC (stereo not given in full) the z-score was 0.783. Cn1c2c(c(=O)n(C)c1=O)C(C(F)(F)F)(C(F)(F)F)N=C(c1ccccc1Cl)N2 showed a z-score of -0.119. CCOc1ccc(N=C2NC(=O)C(CC(=O)O)S2)cc1 (stereo not given) showed a z-score of 0.106. Work on CN(C)S(=O)(=O)c1cccc(NC(=O)COC(=O)c2ccc(Br)o2)c1 yielded a z-score of 0.425. CCOC(=O)c1ccccc1OCc1cc(/C=N/n2cncn2)ccc1OC was tested, and the z-score was -0.468. Work on CC(C)(C)c1ccc(OCC(O)CN(CCO)CC(O)Cn2ccc3ccccc32)cc1 (stereo not given) yielded a z-score of -0.0836. With CCCOc1ccc(Cn2c(=O)oc3ccc(C)cc32)cc1OC the z-score was -0.095. COc1ccc(CC(=O)Nc2ccc(S(=O)(=O)NC(C)C)cc2)cc1 was tested, and the z-score was -0.127. CCC1CC2CC(NC(C)=O)C1C2 (stereo not given) gave a z-score of -0.383. For O=C(Nc1cccc(Oc2ccc3c(c2)C(=O)NC3=O)c1)c1ccco1, the z-score was 0.659. For CCOC(=O)c1ccc(CNS(=O)(=O)c2c(C)ccc3nsnc23)o1, the z-score was 0.587. O=C1CC(Sc2ncn[nH]2)C(=O)N1c1ccccc1 (stereo not given) showed a z-score of 0.104. O=c1nc(-c2ccccc2)cc(C(F)(F)F)[nH]1 was tested, and the z-score was -0.557. CCCCN(CCCC)S(=O)(=O)c1ccc(N2CCCC2=O)c([N+](=O)[O-])c1 showed a z-score of -0.188. CC(c1ccccc1)N1CC(C(=O)N2CCN(c3ccc(F)cc3)CC2)CC1=O (stereo not given) showed a z-score of -0.22. Work on CCCNC(=O)N1CCC(C(=O)c2ccc(Cl)cc2)CC1 yielded a z-score of -0.803. O=C(CSc1ccc(-c2ccc(Cl)cc2)nn1)N1CCCc2ccccc21 was tested, and the z-score was -0.395. In the case of Cc1cc(C(=O)CNCc2ccco2)c(C)n1-c1ccc(F)cc1, the z-score is reported as -0.127. COc1ccc(-c2nn(CC(=O)N(C)C)c(=O)c3ccccc23)cc1 was tested, and the z-score was 0.38. COc1ccc2c(CC(=O)OCC(=O)c3ccccc3OC)coc2c1 was tested, and the z-score was -0.227. With O=C(CNC(=O)C12CC3CC(CC(C3)C1)C2)N1CCN(S(=O)(=O)/C=C/c2ccccc2)CC1 the z-score was -0.259. Cc1cc(C)c(OCCNC(=O)c2ccccc2Sc2ccccc2C#N)c(C)c1 was tested, and the z-score was -0.159. Cc1nc(-c2cccc(S(=O)(=O)N3CCCC(C)C3)c2)cs1 (stereo not given) gave a z-score of -0.168. For N#Cc1ccc(OCC(=O)NCCc2ccccn2)cc1, the z-score was -0.26. For CCCOc1ccc(C(=O)NC(=S)Nc2nc3ccccc3s2)cc1, the z-score was 0.254. For Cc1cccc(C)c1NC(=S)NN(Cc1ccccc1)c1ccccc1, the z-score was -0.102. O=C(COC(=O)CCc1nc2ccccc2s1)Nc1cccc(S(=O)(=O)N2CCOCC2)c1 showed a z-score of 1.66. For CSc1ccc(Cl)c(C(=O)NCc2ccco2)c1, the z-score was -0.107. In the case of CCSc1nc(-c2ccccc2)c(C#N)c(=O)[nH]1, the z-score is reported as active: -3.09. Cn1c(-c2ccc3c(c2)OCO3)cnc1NCc1ccc(Cl)cc1 gave a z-score of -1.67. In the case of COc1ccccc1CCN1C(=S)NC(C)(C)CC1(C)O (stereo not given), the z-score is reported as 0.898. CSc1ccccc1NC(=O)CSc1nnnn1-c1ccccc1SC gave a z-score of -0.42. Molecule O=C(Nc1nc(-c2cccs2)cs1)c1ccc(S(=O)(=O)N2CCCCC2)cc1 has a z-score of -0.0805. With Cc1ccc(C(=O)NCc2occc2C(=O)O)o1 the z-score was 0.31. O=C(NCCc1ccccc1)c1c(F)c(F)c(F)c(F)c1F was tested, and the z-score was -0.11. O=C(OCc1ccc([N+](=O)[O-])cc1)c1ccc(N2CCCC2)c([N+](=O)[O-])c1 gave a z-score of 0.344.
